Assay results: PubChem BioAssay AID1458 (National Center for Advancing Translational Sciences (NCATS), 2008)
Screen size: about 210,000 compounds; about 5,900 (2.8%) were called active. The shares of active, inactive and inconclusive entries below differ from those in the screen. Calls follow the shape of the dose curve; as a rule, active = well fitted activation curve with a large enough effect; inconclusive = small, poorly fitted or top-dose-only effect; inactive = no such curve, though single readings can be large or run the other way. A potency beside an inconclusive call is a rough fit, not a confirmed value.

test: qHTS Assay for Enhancers of SMN2 Splice Variant Expression; conditions: HEK293 SMN2-luciferase splicing reporter, luminescence, 30-36 h; activity change, positive = activation: at 46.1 µM (top of the series); also: nearly all actives have a fitted effect of over 55% in size; as to activity change, positive = activation: % of control where 0% means no effect
In short: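 HEK293 cells carry an SMN2 […]–luciferase reporter in which exon 7 inclusion puts luciferase in frame. Cells were plated 10-12 h before compound addition, then incubated 30-36 h at 37C. ONE-Glo luminescence was read; sodium butyrate at 4.5 mM final served as control.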
Potency is read from the fitted curve at half-maximal effect; tags tell the direction and shape of the fitted curve.

| SMILES | Potency | activity change, positive = activation |
| --- | --- | --- |
| O=C(Nc1ccc(-c2cn3ccccc3n2)cc1)c1ccc(Cl)cc1 | inconclusive: 5.62 µM [activator, partial curve] | – |
| COC(=O)c1nc(N)sc1-c1ccccc1 | inconclusive: 15.8 µM [activator, single point] | – |
| O=C(NC1=NCCS1)C1Cc2ccccc2CN1C(=O)c1ccccc1 (stereo not drawn) | inconclusive: 14.1 µM [activator, single point] | – |
| CCCOC(=O)c1ccc(Cn2nnc3sc4c(c3c2=O)CCC(C)C4)cc1 (stereo not drawn) | – | inactive: 3.76% |
| CCCCNS(=O)(=O)c1ccc(S(=O)(=O)N2CCC3(CC2)OCCO3)cc1 | – | inactive: -23.5% |
| O=C(Cn1c(SCC(=O)N2CCc3ccccc32)nc2ccccc21)NC1CCCC1 | inconclusive: 0.0891 µM [activator, full curve, poor fit] | – |
| CC(=O)N(/N=C1\Sc2ccccc2C1=O)c1ccccc1 | active: 14.1 µM | – |
| COc1ccc(NC(=O)OC(C)C)cc1 | active: 11.2 µM | – |
| CCN(CC)c1ccc(/C=C/C(=O)c2ccc(Br)cc2)cc1 | – | inactive: -3.22% |
| O=C(N1CCCCC1)N1CCN(C(=O)N(c2ccccc2)c2ccccc2)CC1 | inconclusive: 0.0032 µM [activator, full curve, poor fit] | – |
| Cc1csc(NC(=O)C2CCCO2)n1 (stereo not drawn) | inconclusive: 5.62 µM [activator, single point] | – |
| Cc1ccc(-c2noc(CN(C(=O)COc3cc(C)cc(C)c3C)C(C)C)n2)cc1 | – | inactive: -19.1% |
| CCOC(=O)NC1(C(F)(F)F)C(=O)N(Cc2ccccc2)C2=C1C(=O)CC(C)(C)C2 (stereo not drawn) | inconclusive: 0.501 µM [activator, full curve] | – |
| C=CCSc1nn2c(=O)c3ccccc3nc2s1 | inconclusive: 11.2 µM [activator, partial curve, poor fit] | – |
| C/C(=N\Nc1cccc([N+](=O)[O-])c1)c1cc2ccccc2o1 | – | inactive: 24% |
| CCn1ncc(/C=C/C(=O)c2ccccc2)c1C | inconclusive: 5.62 µM [activator, single point] | – |
| Cc1ccc(-c2nnc3sc(CCc4ccccc4)nn23)cc1 | inconclusive: 20 µM [activator, partial curve, poor fit] | – |
| Cn1c(=O)c2c(SCC(=O)N3CCOCC3)nc(CC(C)(C)C)nc2n(C)c1=O | inconclusive: 35.5 µM [activator, single point] | – |
| Cc1nc2ccc(-c3nc4ccccc4o3)cc2[nH]1 | inconclusive: 3.55 µM [activator, partial curve] | – |
| CC(=O)NCc1ccc(C(=O)CSc2nnc(-c3ccncc3)n2Cc2ccccc2)o1 | inconclusive: 3.98 µM [activator, partial curve] | – |
| c1ccc(Nc2nc(-c3ccncc3)cs2)cc1 | inconclusive: 35.5 µM [activator, single point] | – |
| Cc1cccc2cc(COC(=O)c3ccccn3)c(=O)[nH]c12 | inconclusive: 0.199 µM [activator, full curve, poor fit] | – |
| O=C(N/N=C1/CCSC1)c1cccc([N+](=O)[O-])c1 | – | inactive: 3.84% |
| COCCCNC(=O)CC(NS(=O)(=O)c1ccc(F)cc1)c1ccc(OC)cc1 (stereo not drawn) | – | inactive: 7.99% |

| SMILES | Potency | activity change, positive = activation |
| --- | --- | --- |
| Fc1ccc(/C=N/Nc2ncnc3nc[nH]c23)cc1F | inconclusive: 12.6 µM [activator, partial curve, poor fit] | – |
| O=C(NNS(=O)(=O)c1ccccc1)C(O)(c1ccccc1)c1ccccc1 | inconclusive: 0.0224 µM [activator, full curve, poor fit] | – |
| CCOC(=O)c1c2ccc(OCC(=O)N/N=C/c3ccc(Cl)cc3)cc2n2ccccc12 | inconclusive: 22.4 µM [activator, single point] | – |
| CCn1cc(/C=N/O)c(C)n1 | inconclusive: 11.2 µM [activator, partial curve] | – |
| CC(C)(CNC(=O)C1CCCC1)CNC(=O)C1CCCC1 | inconclusive: 3.16 µM [activator, partial curve, poor fit] | – |
| Cc1cc2ccccn2c1C(C[N+](=O)[O-])c1ccc(N(C)C)cc1 (stereo not drawn) | inconclusive: 35.5 µM [activator, single point] | – |
| CCCOC(=O)c1ccc(NC(=O)c2ccccc2OC)cc1 | – | inactive: -18.1% |
| CC1CCN(CCC(=O)N2CCCc3c2c(=O)oc2ccc(O)cc32)CC1 | inconclusive: 3.16 µM [activator, single point] | – |
| O=C(CC1Sc2ccccc2NC1=O)c1ccc(Br)cc1 (stereo not drawn) | inconclusive: 14.1 µM [activator, partial curve] | – |
| CCCCC(=O)Nc1nc2ccc3nc(C)sc3c2s1 | inconclusive: 35.5 µM [activator, single point] | – |
| COc1ccc2oc(=Nc3ccc(C(=O)O)cc3)c(C(=O)NCc3ccco3)cc2c1 | – | inactive: -18.2% |
| Cc1ccc2nc(-c3cccnc3)c(Nc3ccccc3C)n2c1 | inactive | – |
| CCC(=O)N(Cc1ccco1)c1nc(-c2ccc(OC)cc2)cs1 | – | inactive: -10.6% |
| CCOc1ccc(S(=O)(=O)Nc2nc3ccccc3nc2Nc2ccc(OC)cc2)cc1 | – | inactive: -6.43% |
| COc1cc(NC(=O)CN(C)S(=O)(=O)c2ccc3nc(C)sc3c2)cc(OC)c1 | – | inactive: -45.1% |
| CCCCC/C=C\C=C\C(O)CCCCCCCC(=O)O (stereo not drawn) | – | inactive: 0.416% |
| O=S(=O)(Cc1nc2ccccc2s1)c1ccccc1 | active: 14.1 µM | – |
| CCOC(=O)Cn1nnnc1C(CC)N(Cc1cc2ccc(C)cc2[nH]c1=O)C1CCCC1 (stereo not drawn) | inconclusive: 2.82 µM [activator, partial curve, poor fit] | – |
| COCC(C)NC(=O)c1cc(-c2cccc(OC)c2)on1 (stereo not drawn) | inconclusive: 31.6 µM [activator, single point] | – |
| Cc1ccc2cccc(S(=O)(=O)n3nc(C)cc3C)c2n1 | inconclusive: 1.41 µM [activator, full curve, poor fit] | – |
| Nc1ccccc1C(=O)Nc1nccs1 | inconclusive: 14.1 µM [activator, single point] | – |
| Cn1nnc2ccccc2c1=O | – | inactive: -1.29% |
| Fc1cccc(Cl)c1/C=N/Nc1ccccn1 | inconclusive: 7.94 µM [activator, partial curve] | – |
| COc1ccc(-c2nc3n(c(=O)c2C#N)CCS3)cc1 | – | inactive: -14.3% |
